By IC50 is meant the dose at which the fit gives 50% viability; a limit (>, <) means that the fit lies beyond the doses tested. AUC is the area under the same curve over the 256-fold range up to the top dose, as a fraction; values near 1 show little effect. For some of these results: A top dose marked as inferred comes from the curve model; the source does not state it.
What was measured:
Test in all cases: Viability of human cancer cell lines after 72 h of drug (GDSC screen)
NVP-BHG712 = compound: Cc1ccc(C(=O)Nc2cccc(C(F)(F)F)c2)cc1Nc1nc(-c2cccnc2)nc2c1cnn2C [NVP-BHG712]; conditions: top dose 10.24 µM; top dose inferred
Procedure: (§1)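 Human cancer cell lines in 384-well plates, medium with 10% serum, drug for 72 h over a 256-fold dose range (nine 2-fold or five 4-fold steps up to the top dose). Adherent lines were fixed and stained with the nucleic acid dye Syto60, suspension lines read with resazurin; signal relative to control wells, capped at 0 and 100%. One two-parameter sigmoid per drug and line, fitted in a mixed model over all curves with the slope shared within a line.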

Mitomycin C = compound: CO[C@@]12[C@H](COC(N)=O)C3=C(C(=O)C(C)=C(N)C3=O)N1C[C@@H]1N[C@@H]12 [Mitomycin C]; conditions: top dose 16 µM
Procedure: as §1

Midostaurin = compound: CO[C@@H]1[C@H](N(C)C(=O)c2ccccc2)C[C@H]2O[C@]1(C)n1c3ccccc3c3c4c(c5c6ccccc6n2c5c31)C(=O)NC4 [Midostaurin]; conditions: top dose 0.512 µM; top dose inferred
Procedure: as §1

IOX2 = compound: O=C(O)CNC(=O)c1c(O)c2ccccc2n(Cc2ccccc2)c1=O [IOX2]; conditions: top dose 0.1 µM; top dose inferred
Procedure: as §1

Roscovitine = compound: CC[C@H](CO)Nc1nc(NCc2ccccc2)c2ncn(C(C)C)c2n1 [Roscovitine]; conditions: top dose 16 µM; top dose inferred
Procedure: as §1

Bosutinib = compound: COc1cc(Nc2c(C#N)cnc3cc(OCCCN4CCN(C)CC4)c(OC)cc23)c(Cl)cc1Cl [Bosutinib]; conditions: top dose 2 µM
Procedure: as §1

Cell Line: CGTH-W-1 (thyroid, adherent)
- AUC (NVP-BHG712): 0.914
- IC50 (NVP-BHG712): > 10.2 µM
- AUC (Mitomycin C): 0.14
- IC50 (Mitomycin C): 0.0752 µM
- AUC (Midostaurin): 0.546
- IC50 (Midostaurin): 0.0426 µM
- AUC (IOX2): 0.911
- IC50 (IOX2): > 0.1 µM
- AUC (Roscovitine): 0.928
- IC50 (Roscovitine): > 16 µM
- AUC (Bosutinib): 0.887
- IC50 (Bosutinib): > 2 µM

Cell Line: CHP-126 (neuroblastoma, suspension)
- AUC (NVP-BHG712): 0.965
- IC50 (NVP-BHG712): > 10.2 µM
- AUC (Mitomycin C): 0.17
- IC50 (Mitomycin C): 0.0956 µM
- AUC (Midostaurin): 0.963
- IC50 (Midostaurin): > 0.512 µM
- AUC (IOX2): 0.986
- IC50 (IOX2): > 0.1 µM
- AUC (Roscovitine): 0.984
- IC50 (Roscovitine): > 16 µM
- AUC (Bosutinib): 0.987
- IC50 (Bosutinib): > 2 µM

Cell Line: CL-11 (large intestine, adherent)
- AUC (NVP-BHG712): 0.941
- IC50 (NVP-BHG712): > 10.2 µM
- AUC (Mitomycin C): 0.776
- IC50 (Mitomycin C): 7.18 µM
- AUC (Midostaurin): 0.983
- IC50 (Midostaurin): > 0.512 µM
- AUC (IOX2): 0.968
- IC50 (IOX2): > 0.1 µM
- AUC (Roscovitine): 0.983
- IC50 (Roscovitine): > 16 µM
- AUC (Bosutinib): 0.984
- IC50 (Bosutinib): > 2 µM

Cell Line: COLO-668 (small cell lung carcinoma, adherent)
- AUC (NVP-BHG712): 0.912
- IC50 (NVP-BHG712): > 10.2 µM
- AUC (Mitomycin C): 0.073
- IC50 (Mitomycin C): < 0.0625 µM
- AUC (Midostaurin): 0.926
- IC50 (Midostaurin): > 0.512 µM
- AUC (IOX2): 0.983
- IC50 (IOX2): > 0.1 µM
- AUC (Roscovitine): 0.936
- IC50 (Roscovitine): > 16 µM
- AUC (Bosutinib): 0.98
- IC50 (Bosutinib): > 2 µM

Cell Line: COLO-684 (endometrium, suspension)
- AUC (NVP-BHG712): 0.897
- IC50 (NVP-BHG712): > 10.2 µM
- AUC (Mitomycin C): 0.447
- IC50 (Mitomycin C): 0.702 µM
- AUC (Midostaurin): 0.951
- IC50 (Midostaurin): > 0.512 µM
- AUC (IOX2): 0.983
- IC50 (IOX2): > 0.1 µM
- AUC (Roscovitine): 0.922
- IC50 (Roscovitine): > 16 µM
- AUC (Bosutinib): 0.967
- IC50 (Bosutinib): > 2 µM

Cell Line: COLO-800 (melanoma, adherent)
- AUC (NVP-BHG712): 0.965
- IC50 (NVP-BHG712): > 10.2 µM
- AUC (Mitomycin C): 0.174
- IC50 (Mitomycin C): 0.108 µM
- AUC (Midostaurin): 0.953
- IC50 (Midostaurin): > 0.512 µM
- AUC (IOX2): 0.982
- IC50 (IOX2): > 0.1 µM
- AUC (Roscovitine): 0.985
- IC50 (Roscovitine): > 16 µM
- AUC (Bosutinib): 0.963
- IC50 (Bosutinib): > 2 µM

Cell Line: COLO-824 (breast, adherent)
- AUC (NVP-BHG712): 0.959
- IC50 (NVP-BHG712): > 10.2 µM
- AUC (Mitomycin C): 0.548
- IC50 (Mitomycin C): 1.36 µM
- AUC (Midostaurin): 0.954
- IC50 (Midostaurin): > 0.512 µM
- AUC (IOX2): 0.987
- IC50 (IOX2): > 0.1 µM
- AUC (Roscovitine): 0.986
- IC50 (Roscovitine): > 16 µM
- AUC (Bosutinib): 0.988
- IC50 (Bosutinib): > 2 µM

Cell Line: COR-L88 (small cell lung carcinoma, adherent)
- AUC (NVP-BHG712): 0.955
- IC50 (NVP-BHG712): > 10.2 µM
- AUC (Mitomycin C): 0.345
- IC50 (Mitomycin C): 0.34 µM
- AUC (Midostaurin): 0.964
- IC50 (Midostaurin): > 0.512 µM
- AUC (IOX2): 0.984
- IC50 (IOX2): > 0.1 µM
- AUC (Roscovitine): 0.984
- IC50 (Roscovitine): > 16 µM
- AUC (Bosutinib): 0.98
- IC50 (Bosutinib): > 2 µM

Cell Line: COR-L95 (small cell lung carcinoma, adherent)
- AUC (NVP-BHG712): 0.966
- IC50 (NVP-BHG712): > 10.2 µM
- AUC (Mitomycin C): 0.59
- IC50 (Mitomycin C): 1.84 µM
- AUC (Midostaurin): 0.986
- IC50 (Midostaurin): > 0.512 µM
- AUC (IOX2): 0.985
- IC50 (IOX2): > 0.1 µM
- AUC (Roscovitine): 0.977
- IC50 (Roscovitine): > 16 µM
- AUC (Bosutinib): 0.987
- IC50 (Bosutinib): > 2 µM

Cell Line: DJM-1 (skin, adherent)
- AUC (NVP-BHG712): 0.979
- IC50 (NVP-BHG712): > 10.2 µM
- AUC (Mitomycin C): 0.464
- IC50 (Mitomycin C): 0.796 µM
- AUC (Midostaurin): 0.975
- IC50 (Midostaurin): > 0.512 µM
- AUC (Roscovitine): 0.964
- IC50 (Roscovitine): > 16 µM
- AUC (Bosutinib): 0.937
- IC50 (Bosutinib): > 2 µM

Cell Line: GCIY (stomach, adherent)
- AUC (NVP-BHG712): 0.887
- IC50 (NVP-BHG712): > 10.2 µM
- AUC (Mitomycin C): 0.376
- IC50 (Mitomycin C): 0.433 µM
- AUC (Midostaurin): 0.791
- IC50 (Midostaurin): 0.263 µM
- AUC (Roscovitine): 0.816
- IC50 (Roscovitine): 10.4 µM
- AUC (Bosutinib): 0.957
- IC50 (Bosutinib): > 2 µM

Cell Line: IST-SL2 (small cell lung carcinoma, suspension)
- AUC (Mitomycin C): 0.342
- IC50 (Mitomycin C): 0.366 µM
- AUC (Midostaurin): 0.869
- IC50 (Midostaurin): 0.466 µM
- AUC (IOX2): 0.983
- IC50 (IOX2): > 0.1 µM
- AUC (Roscovitine): 0.876
- IC50 (Roscovitine): 15.7 µM
- AUC (Bosutinib): 0.936
- IC50 (Bosutinib): > 2 µM

Cell Line: JSC-1 (B-cell lymphoma, suspension)
- AUC (NVP-BHG712): 0.628
- IC50 (NVP-BHG712): 1.43 µM
- AUC (Mitomycin C): 0.182
- IC50 (Mitomycin C): 0.113 µM
- AUC (Midostaurin): 0.92
- IC50 (Midostaurin): > 0.512 µM
- AUC (Roscovitine): 0.888
- IC50 (Roscovitine): > 16 µM
- AUC (Bosutinib): 0.978
- IC50 (Bosutinib): > 2 µM

Cell Line: LB647-SCLC (small cell lung carcinoma, semi-adherent)
- AUC (Mitomycin C): 0.346
- IC50 (Mitomycin C): 0.354 µM
- AUC (Midostaurin): 0.878
- IC50 (Midostaurin): > 0.512 µM
- AUC (IOX2): 0.977
- IC50 (IOX2): > 0.1 µM
- AUC (Roscovitine): 0.921
- IC50 (Roscovitine): > 16 µM
- AUC (Bosutinib): 0.985
- IC50 (Bosutinib): > 2 µM

Cell Line: MHH-NB-11 (neuroblastoma, adherent)
- AUC (NVP-BHG712): 0.765
- IC50 (NVP-BHG712): 4.11 µM
- AUC (Mitomycin C): 0.271
- IC50 (Mitomycin C): 0.207 µM
- AUC (Midostaurin): 0.985
- IC50 (Midostaurin): > 0.512 µM
- AUC (Roscovitine): 0.872
- IC50 (Roscovitine): > 16 µM
- AUC (Bosutinib): 0.85
- IC50 (Bosutinib): 1.75 µM

Cell Line: MY-M12 (leukaemia, suspension)
- AUC (NVP-BHG712): 0.187
- IC50 (NVP-BHG712): 0.0638 µM
- AUC (Mitomycin C): 0.208
- IC50 (Mitomycin C): 0.12 µM
- AUC (Midostaurin): 0.956
- IC50 (Midostaurin): > 0.512 µM
- AUC (Roscovitine): 0.949
- IC50 (Roscovitine): > 16 µM
- AUC (Bosutinib): 0.74
- IC50 (Bosutinib): 0.675 µM

Cell Line: NCI-H64 (small cell lung carcinoma, suspension)
- AUC (NVP-BHG712): 0.86
- IC50 (NVP-BHG712): 5.28 µM
- AUC (Mitomycin C): 0.575
- IC50 (Mitomycin C): 1.52 µM
- AUC (Midostaurin): 0.977
- IC50 (Midostaurin): > 0.512 µM
- AUC (Roscovitine): 0.995
- IC50 (Roscovitine): > 16 µM
- AUC (Bosutinib): 0.979
- IC50 (Bosutinib): > 2 µM

Cell Line: NCI-H510A (small cell lung carcinoma, semi-adherent)
- AUC (NVP-BHG712): 0.841
- IC50 (NVP-BHG712): 6.28 µM
- AUC (Mitomycin C): 0.359
- IC50 (Mitomycin C): 0.421 µM
- AUC (Midostaurin): 0.952
- IC50 (Midostaurin): > 0.512 µM
- AUC (Roscovitine): 0.908
- IC50 (Roscovitine): > 16 µM
- AUC (Bosutinib): 0.961
- IC50 (Bosutinib): > 2 µM

Cell Line: NCI-H1963 (small cell lung carcinoma, suspension)
- AUC (NVP-BHG712): 0.97
- IC50 (NVP-BHG712): > 10.2 µM
- AUC (Mitomycin C): 0.492
- IC50 (Mitomycin C): 0.952 µM
- AUC (Midostaurin): 0.904
- IC50 (Midostaurin): > 0.512 µM
- AUC (Roscovitine): 0.907
- IC50 (Roscovitine): > 16 µM
- AUC (Bosutinib): 0.991
- IC50 (Bosutinib): > 2 µM

Cell Line: RCC10RGB (kidney, adherent)
- AUC (NVP-BHG712): 0.932
- IC50 (NVP-BHG712): > 10.2 µM
- AUC (Mitomycin C): 0.559
- IC50 (Mitomycin C): 1.69 µM
- AUC (Midostaurin): 0.874
- IC50 (Midostaurin): > 0.512 µM
- AUC (Roscovitine): 0.924
- IC50 (Roscovitine): > 16 µM
- AUC (Bosutinib): 0.911
- IC50 (Bosutinib): > 2 µM

Cell Line: Ramos-2G6-4C10 (Burkitt lymphoma, suspension)
- AUC (NVP-BHG712): 0.86
- IC50 (NVP-BHG712): 6.67 µM
- AUC (Mitomycin C): 0.607
- IC50 (Mitomycin C): 1.88 µM
- AUC (Midostaurin): 0.894
- IC50 (Midostaurin): 0.456 µM
- AUC (Roscovitine): 0.922
- IC50 (Roscovitine): > 16 µM
- AUC (Bosutinib): 0.834
- IC50 (Bosutinib): 1.05 µM

Cell Line: SUP-B15 (lymphoblastic leukaemia, suspension)
- AUC (NVP-BHG712): 0.504
- IC50 (NVP-BHG712): 0.654 µM
- AUC (Mitomycin C): 0.078
- IC50 (Mitomycin C): < 0.0625 µM
- AUC (Midostaurin): 0.893
- IC50 (Midostaurin): > 0.512 µM
- AUC (Roscovitine): 0.938
- IC50 (Roscovitine): > 16 µM
- AUC (Bosutinib): 0.793
- IC50 (Bosutinib): 0.871 µM

Cell Line: SW954 (urogenital system, adherent)
- AUC (NVP-BHG712): 0.89
- IC50 (NVP-BHG712): > 10.2 µM
- AUC (Mitomycin C): 0.157
- IC50 (Mitomycin C): 0.0865 µM
- AUC (Midostaurin): 0.86
- IC50 (Midostaurin): 0.439 µM
- AUC (Roscovitine): 0.965
- IC50 (Roscovitine): > 16 µM
- AUC (Bosutinib): 0.85

Reference: the supplement of paper PMC4967469
